The series concerns HEK293T. Put plainly: plasma membrane surface immunostaining intensity (anti-HA, deep receptor scanning) (arbitrary fluorescence units); higher = higher plasma membrane expression.

± gives the uncertainty stated by the source.

Turning to “MATPRGLGALLLLLLLPTSGQEKPTEGPRNTCLGSNNMYDIFNLNDKALCFTKCRQSGSDSCNVENLQRYWLNYEAHLMKEGLTQKVNTPFLKALVQNLSTNTAEDFYFSLEPSQVPRQVMKDEDKPPDRVRLPKSLFRSLPGNRSVVRLAVTILDIGPGTLFKGPRLGLGDGSGVLNNRLVGLSVGQMHVTKLAEPLEIVFSHQRPPPNMTLTCVFWDVTKGTTGDWSSEGCSTEVRPEGTVCCCDHLTFFALLLRPTLDQSTVHILTRISQAGCGVSMIFLAFTIILYAFLRLSRERFKSEDAPKIHVALGGSLFLLNLAFLVNVGSGSKGSDAACWARGAVFHYFLLCAFTWMGLEAFHLYLLAVRVFNTYFGHYFLKLSLVGWGLPALMVIGTGSANSYGLYTIRDRENRTSLELCWFREGTTMYALYITVHGYFLITFLFGMVVLALVVWKIFTLSRATAVKERGKNRKKVLTLLGLSSLVGVTWGLAIFTPLGLSTVYIFALFNSLQGVFICCWFTILYLPSQSTTVSSSTARLDQAHSASQE [ADGRG3]”, the “plasma membrane surface immunostaining intensity” value (GPCR class: B) came to 6470 ± 56.

As to “MATTVPDGCRNGLKSKYYRLCDKAEAWGIVLETVATAGVVTSVAFMLTLPILVCKVQDSNRRKMLPTQFLFLLGVLGIFGLTFAFIIGLDGSTGPTRFFLFGILFSICFSCLLAHAVSLTKLVRGRKPLSLLVILGLAVGFSLVQDVIAIEYIVLTMNRTNVNVFSELSAPRRNEDFVLLLTYVLFLMALTFLMSSFTFCGSFTGWKRHGAHIYLTMLLSIAIWVAWITLLMLPDFDRRWDDTILSSALAANGWVFLLAYVSPEFWLLTKQRNPMDYPVEDAFCKPQLVKKSYGVENRAYSQEEITQGFEETGDTLYAPYSTHFQLQNQPPQKEFSIPRAHAWPSPYKDYEVKKEGS [GPRC5A]”, where the note is “GPCR class: C”, the “plasma membrane surface immunostaining intensity” value turned out to be 6447 ± 50.

Consider “MDKLDANVSSEEGFGSVEKVVLLTFLSTVILMAILGNLLVMVAVCWDRQLRKIKTNYFIVSLAFADLLVSVLVMPFGAIELVQDIWIYGEVFCLVRTSLDVLLTTASIFHLCCISLDRYYAICCQPLVYRNKMTPLRIALMLGGCWVIPTFISFLPIMQGWNNIGIIDLIEKRKFNQNSNSTYCVFMVNKPYAITCSVVAFYIPFLLMVLAYYRIYVTAKEHAHQIQMLQRAGASSESRPQSADQHSTHRMRTETKAAKTLCIIMGCFCLCWAPFFVTNIVDPFIDYTVPGQVWTAFLWLGYINSGLNPFLYAFLNKSFRRAFLIILCCDDERYRRPSILGQTVPCSTTTINGSTHVLRDAVECGGQWESQCHPPATSPLVAAQPSDT [HTR4]”, for which the “plasma membrane surface immunostaining intensity” value (GPCR class: A) was found to be 5930 ± 170. Turning to “MDLEASLLPTGPNASNTSDGPDNLTSAGSPPRTGSISYINIIMPSVFGTICLLGIIGNSTVIFAVVKKSKLHWCNNVPDIFIINLSVVDLLFLLGMPFMIHQLMGNGVWHFGETMCTLITAMDANSQFTSTYILTAMAIDRYLATVHPISSTKFRKPSVATLVICLLWALSFISITPVWLYARLIPFPGGAVGCGIRLPNPDTDLYWFTLYQFFLAFALPFVVITAAYVRILQRMTSSVAPASQRSIRLRTKRVTRTAIAICLVFFVCWAPYYVLQLTQLSISRPTLTFVYLYNAAISLGYANSCLNPFVYIVLCETFRKRLVLSVKPAAQGQLRAVSNAQTADEERTESKGT [MCHR1]”, for the setting “GPCR class: A”, the “plasma membrane surface immunostaining intensity” value is 6450 ± 72. On to “MDLPVNLTSFSLSTPSPLETNHSLGKDDLRPSSPLLSVFGVLILTLLGFLVAATFAWNLLVLATILRVRTFHRVPHNLVASMAVSDVLVAALVMPLSLVHELSGRRWQLGRRLCQLWIACDVLCCTASIWNVTAIALDRYWSITRHMEYTLRTRKCVSNVMIALTWALSAVISLAPLLFGWGETYSEGSEECQVSREPSYAVFSTVGAFYLPLCVVLFVYWKIYKAAKFRVGSRKTNSVSPISEAVEVKDSAKQPQMVFTVRHATVTFQPEGDTWREQKEQRAALMVGILIGVFVLCWIPFFLTELISPLCSCDIPAIWKSIFLWLGYSNSFFNPLIYTAFNKNYNSAFKNFFSRQH [HTR5A]”, for which the “plasma membrane surface immunostaining intensity” value (GPCR class: A) amounted to 2930 ± 720. Turning to “MDMADEPLNGSHTWLSIPFDLNGSVVSTNTSNQTEPYYDLTSNAVLTFIYFVVCIIGLCGNTLVIYVILRYAKMKTITNIYILNLAIADELFMLGLPFLAMQVALVHWPFGKAICRVVMTVDGINQFTSIFCLTVMSIDRYLAVVHPIKSAKWRRPRTAKMITMAVWGVSLLVILPIMIYAGLRSNQWGRSSCTINWPGESGAWYTGFIIYTFILGFLVPLTIICLCYLFIIIKVKSSGIRVGSSKRKKSEKKVTRMVSIVVAVFIFCWLPFYIFNVSSVSMAISPTPALKGMFDFVVVLTYANSCANPILYAFLSDNFKKSFQNVLCLVKVSGTDDGERSDSKQDKSRLNETTETQRTLLNGDLQTSI [SSTR2]”, where the note is “GPCR class: A”, the “plasma membrane surface immunostaining intensity” value came to 4200 ± 750.

These data come from the supplement of paper PMC12458215.
